Test results from the supplement of paper PMC4604168 (melanoma cell lines).
The other results are listed elsewhere or left out. Single values are uncertain, as repeats are few or missing.

Assays:
Test in all cases: cell count relative to DMSO control; melanoma cells; higher = more viable cells
Settings in all cases: library dose: standard library concentration; 72 h
SkMel28 = tested on: SkMel28
SkMel2 = tested on: SkMel2
SkMel30 = tested on: SkMel30
SkMel5 = tested on: SkMel5
UACC257 = tested on: UACC257
UACC62 = tested on: UACC62
WM115 = tested on: WM115
WM1716 = tested on: WM1716
WM1745 = tested on: WM1745
WM3526 = tested on: WM3526
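Further: cells treated in 1,536-well plates, then fixed and DAPI-stained, with nuclei counted from automated high-throughput microscope images.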

| Compound | cell count (SkMel28) [%] | cell count (SkMel2) [%] | cell count (SkMel30) [%] | cell count (SkMel5) [%] | cell count (UACC257) [%] | cell count (UACC62) [%] | cell count (WM115) [%] | cell count (WM1716) [%] | cell count (WM1745) [%] | cell count (WM3526) [%] |
| --- | --- | --- | --- | --- | --- | --- | --- | --- | --- | --- |
| CO[C@@H]1[C@H](N(C)C(=O)c2ccccc2)C[C@H]2O[C@]1(C)n1c3ccccc3c3c4c(c5c6ccccc6n2c5c31)C(=O)NC4 [Midostaurin] + CCc1ccc(CCOc2ccc(CC3SC(=O)NC3=O)cc2)nc1 [pioglitazone] (first compound 0.4 µM, partner dose 10 µM) | 48.4 | 44.3 | 43.8 | 40.7 | 56.5 | 48.5 | 40 | 26.7 | 28 | 48 |
| CO[C@@H]1[C@H](N(C)C(=O)c2ccccc2)C[C@H]2O[C@]1(C)n1c3ccccc3c3c4c(c5c6ccccc6n2c5c31)C(=O)NC4 [Midostaurin] + CCCCCCCCCCCC1=C(O)C(=O)C=C(O)C1=O [Embelin] (first compound 0.4 µM, partner dose 6 µM) | 50.8 | 45.5 | 46.3 | 30.3 | 61.1 | 47.5 | 27.4 | 33 | 34.6 | 66.2 |
| OCCn1cc(-c2cnc3nnn(Cc4ccc5ncccc5c4)c3n2)cn1 + N#Cc1c(O)c2c(-c3ccc(-c4ccccc4O)cc3)csc2[nH]c1=O [A769662] (first compound 5 µM, partner dose 10 µM) | 99.3 | 103 | 81.4 | 86.1 | 108 | 125 | 93 | 85.8 | 86.8 | 92.3 |
| OCCn1cc(-c2cnc3nnn(Cc4ccc5ncccc5c4)c3n2)cn1 + O=C(O)c1ccc(-c2c[nH]c3ncc(-c4ccccc4)cc23)cc1C1CCCC1 [GSK650394] (first compound 5 µM, partner dose 0.8 µM) | 54.6 | 71.9 | 101 | 78 | 83.7 | 89 | 90.4 | 67.9 | 77.8 | 86.2 |
| CO[C@@H]1[C@H](N(C)C(=O)c2ccccc2)C[C@H]2O[C@]1(C)n1c3ccccc3c3c4c(c5c6ccccc6n2c5c31)C(=O)NC4 [Midostaurin] + N#Cc1c(O)c2c(-c3ccc(-c4ccccc4O)cc3)csc2[nH]c1=O [A769662] (first compound 0.4 µM, partner dose 10 µM) | 61.5 | 60.2 | 75.8 | 68.8 | 83.3 | 59.9 | 51.8 | 39.8 | 52.3 | 79 |
| Cc1nc(Nc2ncc(C(=O)Nc3c(C)cccc3Cl)s2)cc(N2CCN(CCO)CC2)n1 [dasatanib] + Cn1cncc1[C@@](N)(c1ccc(Cl)cc1)c1ccc2c(c1)c(-c1cccc(Cl)c1)cc(=O)n2C [tipifarnib] (first compound 0.02 µM, partner dose 0.05 µM) | 65.4 | 72 | 106 | 56.1 | 83.9 | 60.6 | 55 | 37.1 | 49.3 | 63.8 |
| CN(C)S(=O)(=O)c1ccc2c(c1)/C(=C/c1cc3c([nH]1)CCCC3)C(=O)N2 + O=c1cc(-c2cccc3c2Sc2ccccc2S3)oc(N2CCOCC2)c1 [KU55933] (first compound 2 µM, partner dose 5 µM) | 52.9 | 77.8 | 89.9 | 54 | 77.2 | 54.1 | 41.5 | 58 | 60.6 | 63.6 |
| CN(C)S(=O)(=O)c1ccc2c(c1)/C(=C/c1cc3c([nH]1)CCCC3)C(=O)N2 + COc1ccc(COc2ccc(Cc3cnc(N)nc3N)cc2OC)cc1 [GW2580] (first compound 2 µM, partner dose 5 µM) | 38.5 | 84.1 | 68.3 | 72.6 | 91.5 | 73.7 | 48.8 | 55.5 | 65.2 | 77 |
| C[C@]1(c2nc3c(C(N)=O)cccc3[nH]2)CCCN1 [Veliparib] + CN(C)S(=O)(=O)c1ccc2c(c1)/C(=C/c1cc3c([nH]1)CCCC3)C(=O)N2 [SU6656] (first compound 7 µM, partner dose 2 µM) | 43.8 | 87.9 | 73.1 | 63.4 | 71.3 | 60.8 | 41.6 | 59.4 | 59.7 | 73 |
| C[C@]1(c2nc3c(C(N)=O)cccc3[nH]2)CCCN1 [Veliparib] + CN(NC(=O)CC(=O)NN(C)C(=S)c1ccccc1)C(=S)c1ccccc1 [STA4783] (first compound 7 µM, partner dose 0.03 µM) | 20.9 | 48.7 | 78.4 | 39.2 | 99.4 | 42.3 | 17.4 | 86.9 | 26.6 | 96.4 |
| NC(=O)Nc1cc(-c2cccc(F)c2)sc1C(=O)N[C@H]1CCCNC1 + CCCCCCCCCCCC1=C(O)C(=O)C=C(O)C1=O [Embelin] (first compound 0.1 µM, partner dose 6 µM) | 30.4 | 78.9 | 73.3 | 81.4 | 106 | 47.1 | 76.4 | 67.3 | 61.8 | 49.9 |
